Measured values from PMC6919601, “Identification of Plasmodium dipeptidyl aminopeptidase allosteric inhibitors by high throughput screening” (PLoS ONE, 2019).
About 230 (0.21%) of roughly 110,000 compounds showed an effect of 50% or more. This is one part of the list.

Biological target: DPAP1 (Plasmodium falciparum, UniProt Q8IIJ9)
Assay: primary screen, percent inhibition; read by cleavage of a fluorogenic dipeptide substrate; higher = more effect of the substance
Design: species or system P. falciparum D10 trophozoite lysates; single well
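Note: 30 min substrate incubation versus DMSO and 10 µM JCP410 controls.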

DPAP1, sequence (Q8IIJ9 whole entry, looked up): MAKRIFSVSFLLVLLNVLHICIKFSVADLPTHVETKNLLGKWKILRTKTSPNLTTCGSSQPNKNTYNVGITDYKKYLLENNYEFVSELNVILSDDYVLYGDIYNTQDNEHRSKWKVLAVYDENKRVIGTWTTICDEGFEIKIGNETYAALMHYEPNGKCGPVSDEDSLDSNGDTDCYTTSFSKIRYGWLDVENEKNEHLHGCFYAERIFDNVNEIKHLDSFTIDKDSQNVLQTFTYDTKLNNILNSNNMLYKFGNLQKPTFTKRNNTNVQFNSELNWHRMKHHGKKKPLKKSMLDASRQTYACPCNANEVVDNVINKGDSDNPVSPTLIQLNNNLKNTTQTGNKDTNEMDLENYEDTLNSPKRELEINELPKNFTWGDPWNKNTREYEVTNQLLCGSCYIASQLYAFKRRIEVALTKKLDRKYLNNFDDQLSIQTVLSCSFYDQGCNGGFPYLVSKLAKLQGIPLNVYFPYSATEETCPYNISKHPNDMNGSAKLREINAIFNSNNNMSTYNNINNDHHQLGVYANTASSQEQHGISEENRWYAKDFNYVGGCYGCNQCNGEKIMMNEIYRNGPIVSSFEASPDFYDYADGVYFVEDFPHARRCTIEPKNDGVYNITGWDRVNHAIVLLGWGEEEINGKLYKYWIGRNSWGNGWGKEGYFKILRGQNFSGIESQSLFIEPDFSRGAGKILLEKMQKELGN

| SMILES | % Inhibition @ 10 uM |
| --- | --- |
| C=CCn1c(=N)c(C(=O)NC)cc2c(=O)n3cc(C)ccc3nc21 | -1.47% |
| O=C(CCC1CCCC1)Nc1ccc(Br)cn1 | -4.41% |
| COc1ccc(C(=O)C2=C(O)C(=O)N(CCCn3ccnc3)C2c2cccc(O)c2)cc1F (centres unmarked) | -0.132% |
| COCCCNC(=O)CSc1nc2nc(C)c(Cc3c(F)cccc3Cl)c(C)n2n1 | 18.5% |
| COc1cc2c(cc1OC)CN(C(=O)c1ccco1)CC2 | -7.3% |
| CC(C)Cn1cc(NC(=O)NCCC2=CCCCC2)c2ccccc2c1=O | -2.52% |
| CC(C)N(C(=O)c1ccc2snnc2c1)C(C)C | -0.0235% |
| Cc1cccc(C)c1OCCCN1CCOCC1 | -2.12% |
| O=C(Cn1cc(S(=O)(=O)Cc2ccccc2)c2ccccc21)NC1CCCCC1 | 4.91% |
| CCOc1ccc(C2NCCc3cc(OCC)c(OC)cc32)cc1OC (centres unmarked) | 5.15% |
| CC(C)CC(C(=O)NCC#N)c1nc(-c2ccc(Br)cc2)cs1 (centres unmarked) | 0.173% |
| COc1ccccc1N1CCN(S(=O)(=O)c2cc(Cl)ccc2Cl)CC1 | 1.83% |
| COc1cc(NC(=O)CC2S/C(=N\c3ccccc3C)N(C)C2=O)c(OC)cc1Cl (centres unmarked) | -0.992% |
| CCN(CCN(C)C)Cc1ccc(OC)cc1 | 1.62% |
| CCc1nc2cccnc2n1-c1ccc(CC(=O)NCCc2ccc(S(N)(=O)=O)cc2)cc1 | 6.78% |
| CS(=O)(=O)N(CC(=O)N1CCN(c2ccccc2F)CC1)c1cccc(F)c1 | -0.854% |
| CCOc1cc(CNCCCN(CC)CC)ccc1OC | -10.9% |
| C=CCOc1ccc(C2C(C#N)=C(N)OC3=C2C(=O)CC(C)(C)C3)cc1OC (centres unmarked) | 1.43% |
| CCOC(=O)c1[nH]c(C)c(C(=O)Cc2cccc(Br)c2)c1C | 3.01% |
| COc1ccccc1-c1nnc(S)o1 | 3.72% |
| CCOc1ccccc1C1/C(=C(\O)OC)C(C)=Nc2nc(-c3ccccc3)nn21 (centres unmarked) | 5.17% |
| CSc1cnn(Cc2ccccc2)c(=O)c1SC | 1.67% |

| SMILES | % Inhibition @ 10 uM |
| --- | --- |
| CC(C)Cc1ccc(S(=O)(=O)N2CCN(Cc3ccccc3)CC2)cc1 | -0.363% |
| CN1CCN(C(=O)c2ccc(Cl)cc2Cl)CC1 | 8.67% |
| Cc1ccc(-n2nc(C)c3c(C)c(CCC(=O)NCCCN4CCCC4)c(C)nc32)cc1C | -0.465% |
| O=C(Nc1ccc(Cl)cc1F)C1CC(=O)N(c2ccc(Cl)cc2)C1 (centres unmarked) | -1.42% |
| CC(C)CS(=O)(=O)C1=NN2C(=N)/C(=C\c3ccc(O)cc3)C(=O)N=C2S1 | -1.54% |
| CCn1nc(-c2ccccc2)c(N2CCOCC2)nc1=O | 16.6% |
| CC(=O)Nc1ccc(C(=O)Nc2ccc(C(C)C)cc2)cc1 | -3.77% |
| COc1ccc(C(=O)N2CCN(C(=O)c3ccco3)CC2)cc1COc1ccc(Br)cc1 | -1.88% |
| COc1ccc(-c2noc(CSc3ccccc3)n2)cc1OC | -5.6% |
| COCCO/C(O)=C1\C(C)=NC2=C(C(=O)CCC2)C1c1ccccc1OC(C)C (centres unmarked) | 10.4% |
| Cc1c(-c2ccccc2)[n+]([O-])c(-c2ccco2)c(C)[n+]1[O-] | 1.84% |
| CN1CC=C2C(C#N)=C(N)C(C#N)(C#N)C(c3cccc(O)c3)C2C1 (centres unmarked) | -2.39% |
| CN(Cc1c(F)cccc1Cl)CC(O)c1ccccc1 (centres unmarked) | -4.14% |
| CN(CCO)C12CC3CC(CC(O)(C3)C1)C2 | 3.82% |
| CC(=O)c1ccc(OCC(=O)NC2CCS(=O)(=O)C2)cc1 (centres unmarked) | 3.06% |
| CCN1C/C(=C\c2cc(OC)c(OC)cc2OC)C(=O)/C(=C/c2cc(OC)c(OC)cc2OC)C1 | 1.07% |
| O=C(COc1ccc(S(=O)(=O)NC2CCCCC2)cc1)Nc1ccc2c(c1)OCO2 | -1.27% |
| COc1ccc(C(=O)CCN(C)CC(=O)O)cc1 | 55.8% |
| C=CCSc1nc(=O)c2c(n1C)NC(=O)CC2c1cc(Br)ccc1OC (centres unmarked) | 0.596% |
| CN(CCNC(=O)c1cc2c(s1)-c1ccccc1OC2)C1CCCCC1 | -3.08% |
| O=C1CC(Nc2ccc(F)cc2)C(=O)N1c1ccc(F)cc1 (centres unmarked) | -4.68% |
| CC1CCN(c2c(NCc3ccc(C(=O)NC4CCCc5ccccc54)cc3)c(=O)c2=O)CC1 (centres unmarked) | -2.25% |

| SMILES | % Inhibition @ 10 uM |
| --- | --- |
| Cc1cccc(Cn2c(NCc3ccc4c(c3)OCO4)nc3c2c(=O)n(C)c(=O)n3C)c1 | 0.0367% |
| CN1CCC(N(C)Cc2ccccc2Br)CC1 | -0.127% |
| O=C(c1ccc(Cl)cc1Cl)N1CCN(Cc2ccccc2)CC1 | 1.57% |
| COc1cc(NC(=O)c2ccc(Br)cc2)c(OC)cc1NC(C)=O | 4.11% |
| CCC(C)OC(=O)C(O)(c1ccc(Br)cc1)c1ccc(Br)cc1 (centres unmarked) | 1.33% |
| COc1ccc(NC(=O)c2cc(C(C)=O)oc2C)cc1 | -2.2% |
| COc1ccc(OC)c(NC(=O)c2c(NC(=O)c3cccs3)sc3c2CCCC3)c1 | -5.58% |
| Cc1ccc(-n2ncc3c(N4CCCCC4)ncnc32)cc1C | -1.79% |
| C=CCC(CS(=O)(=O)Cc1ccccc1)C(=O)NCC#N (centres unmarked) | -1.83% |
| CC(C)(C)c1ccc(C(=O)NCCCn2ccnc2)cc1 | 4.85% |
| Cc1ccc(S(=O)(=O)c2nnn3c2nc(N2CCN(c4ccccn4)CC2)c2ccccc23)cc1 | -2.41% |
| CCCCCC(=O)Nc1ccccc1N1CCOCC1 | -1.21% |
| CSc1ccc(NC(=O)c2sc3nc(-c4cccs4)ccc3c2N)cc1 | -0.68% |
| CCOC(=O)C1CCCN(CC2CCCCC2)C1 (centres unmarked) | -9.14% |
| O=S(=O)(c1ccccc1)N1CCN(c2ncnc3sc4c(c23)CCCC4)CC1 | 4.11% |
| C=C(C)CN(CC)Cc1cc([N+](=O)[O-])ccc1O | -0.292% |
| Cc1ccc(S(=O)(=O)N(CC(=O)N2CCCCC2)c2ccc(Cl)cc2C)cc1 | -0.496% |
| CC(=O)C1=C(C)OC(N)=C(C#N)C1c1cccc(O)c1 (centres unmarked) | -2.64% |
| COCCNC(=O)c1nnc(-c2ccccc2)o1 | 2.5% |
| Fc1ccccc1CN1CCOCC1 | -0.603% |
| COc1ccc(C(=O)NC2(Cc3cc(OC)ccc3OC)N=C3C=CC(C)=CN3C2=O)cc1 (centres unmarked) | -0.637% |
